In a collection of fitness landscapes (doi:10.1016/j.celrep.2020.107928):
The full ranking holds about 81,000 sequences; the median of “one-hybrid fitness for binding NBS DNA” is about -0.1, and the highest 2% start at about 0.36. This is one part of the list.

B1: Caulobacter ParB omega fusion; a variant is named by its letters at X, in order, B8GW30 (parent)
chain: MESVVVGEPGMSEGRRGLGRGLSALLGEVDAAPAQAPGEQLGGSREAPIEILQRNPDQPRRTFREEDLEDLSNSIREKGVLQPILVRPSPDTAGEYQIVAGERAWRAAQRAGLKTVPIMVRELDDLAVLEIGIIENVQRADLNVLEEALSYKVLMEKFERTQENIAQTIGKSXSHVANXMRLLXLPDEVQSYLVSGELTAXHARAIAAAADPVALAKQIIEGGLSVRETEALARKAPNLSAGKSKGGRPPRVKDTDTQALESDLSSVLGLDVSIDHRGSTGTLTITYATLEQLDDLCNRLTRGI

Variants of: B1
Assay: one-hybrid fitness for binding NBS DNA (the Noc-binding site; scaled: cognate 1, non-cognate 0); higher = stronger binding
Conditions: with NBS DNA site
Method in brief: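 Caulobacter ParB libraries with four specificity codons randomised were screened by bacterial one-hybrid selection in the E. coli USO strain, using a HIS3 reporter whose site lies 19 bp from the promoter. Selection ran for 48 hours at 37°C on M9 lacking histidine, with 0.1 mM IPTG and 5 mM 3-AT. Plasmids were Illumina-sequenced before and after selection, three replicate libraries were pooled, and variants with under 10 reads were dropped. Fitness is the log change in each variant's read ratio to wild type, rescaled against the cognate and non-cognate sites.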

Variant	one-hybrid fitness for binding NBS DNA
RNQV	≤ 0.2
CSHP	≤ 0.2
HWPE	≤ 0.2
AFMR	≤ 0.2
PMRG	≤ 0.2
RKMY	≤ 0.2
DYYM	≤ 0.2
RKLT	0.579
DCQR	≤ 0.2
CELM	≤ 0.2
KCMR	≤ 0.2
RSPK	≤ 0.2
GNDD	≤ 0.2
SLPM	≤ 0.2
QPGS	≤ 0.2
IMEV	≤ 0.2
RRAS	0.655
GTHP	≤ 0.2
LHLM	≤ 0.2
TQKC	≤ 0.2
KSTL	≤ 0.2
GYGY	≤ 0.2
KPPM	≤ 0.2
PQSC	≤ 0.2

Variant	one-hybrid fitness for binding NBS DNA
HVPR	≤ 0.2
TSDL	≤ 0.2
YHHT	≤ 0.2
IALS	≤ 0.2
SQGA	≤ 0.2
TLHT	≤ 0.2
VIWG	≤ 0.2
PQMW	≤ 0.2
QWTY	≤ 0.2
YILS	≤ 0.2
NIDM	≤ 0.2
RLRM	≤ 0.2
GPGN	≤ 0.2
EWKS	≤ 0.2
QPNA	≤ 0.2
FLPL	≤ 0.2
GSMR	≤ 0.2
TDVD	≤ 0.2
TQPV	≤ 0.2
QQMG	≤ 0.2
KTKC	≤ 0.2
QLPD	≤ 0.2
SKNL	≤ 0.2
WEYT	≤ 0.2

Variant	one-hybrid fitness for binding NBS DNA
PFNS	≤ 0.2
GSQM	≤ 0.2
PVPI	≤ 0.2
QYMT	0.416
RRNQ	0.313
KRKW	≤ 0.2
HRSI	≤ 0.2
SVST	≤ 0.2
RFCP	≤ 0.2
DPLK	≤ 0.2
RMAH	≤ 0.2
QFKR	0.595
EHVC	≤ 0.2
GCAR	≤ 0.2
QLAW	≤ 0.2
GAAV	≤ 0.2
SMTA	≤ 0.2
WHLM	≤ 0.2
EYNS	≤ 0.2
TIDA	≤ 0.2
TCAH	≤ 0.2
DCAF	≤ 0.2
NTYC	≤ 0.2
AHWG	≤ 0.2

Variant	one-hybrid fitness for binding NBS DNA
QDIE	≤ 0.2
RFKM	≤ 0.2
GIRS	≤ 0.2
RLAP	≤ 0.2
HLAF	≤ 0.2
RNGQ	≤ 0.2
QESF	≤ 0.2
VESI	≤ 0.2
TETV	≤ 0.2
SHNL	≤ 0.2
WGTF	≤ 0.2
PFRA	≤ 0.2
ITFI	≤ 0.2
TYMP	≤ 0.2
RMIK	≤ 0.2
SKRM	≤ 0.2
HDFS	≤ 0.2
GGQP	≤ 0.2
YEHR	≤ 0.2
IYAT	≤ 0.2
NRIQ	≤ 0.2
RQKG	≤ 0.2
PKKV	≤ 0.2
VTIL	≤ 0.2

Variant	one-hybrid fitness for binding NBS DNA
GSWY	≤ 0.2
CLKH	≤ 0.2
EYAP	≤ 0.2
HLCR	≤ 0.2
SSET	≤ 0.2
LLVY	≤ 0.2
MACT	≤ 0.2
GWMY	≤ 0.2
KWNS	≤ 0.2
ERLL	≤ 0.2
PWNS	≤ 0.2
NETL	≤ 0.2
QTAS	0.51
NSGN	≤ 0.2
RNKN	≤ 0.2
QVST	0.318
CTNT	≤ 0.2
SPLW	≤ 0.2
WYHM	≤ 0.2
NRNN	≤ 0.2
VNIG	≤ 0.2
VHRH	≤ 0.2
QRSP	≤ 0.2
IYRY	≤ 0.2

Variant	one-hybrid fitness for binding NBS DNA
TDLC	≤ 0.2
TYRK	≤ 0.2
MSYV	≤ 0.2
FGRC	≤ 0.2
MPTR	≤ 0.2
HLPD	≤ 0.2
QSMN	≤ 0.2
RDRV	≤ 0.2
LAQV	≤ 0.2
THHM	≤ 0.2
CRSQ	≤ 0.2
VQTI	≤ 0.2
KKLN	≤ 0.2
NDRD	≤ 0.2
LCDV	≤ 0.2
KFNR	≤ 0.2
QWAK	≤ 0.2
NENV	≤ 0.2
NINL	≤ 0.2
FNDS	≤ 0.2
AFMC	≤ 0.2
NAYR	≤ 0.2
ALTF	≤ 0.2
EIGR	≤ 0.2

Variant	one-hybrid fitness for binding NBS DNA
VWTN	≤ 0.2
TAES	≤ 0.2
KEIS	≤ 0.2
NCTR	≤ 0.2
CEPP	≤ 0.2
YPLP	≤ 0.2
ELVV	≤ 0.2
QGHV	≤ 0.2
QYLF	≤ 0.2
FHAG	≤ 0.2
YLDD	≤ 0.2
WLEY	≤ 0.2
RRNR	0.813
APHQ	≤ 0.2
TPLP	≤ 0.2
KKVT	≤ 0.2
EFAA	≤ 0.2
GKTI	≤ 0.2
VPNK	≤ 0.2
PINE	≤ 0.2
FSLT	≤ 0.2
PWVD	≤ 0.2
LMQT	≤ 0.2
QHGE	≤ 0.2

Variant	one-hybrid fitness for binding NBS DNA
ENQI	≤ 0.2
DRQR	≤ 0.2
GMDI	≤ 0.2
PGHQ	≤ 0.2
ECMV	≤ 0.2
YSME	≤ 0.2
AMRT	≤ 0.2
QRWF	≤ 0.2
PMRP	≤ 0.2
RNVG	≤ 0.2
VDPN	≤ 0.2
QRNA	0.632
TMLF	≤ 0.2
NGGA	≤ 0.2
ERVE	≤ 0.2
PRLN	≤ 0.2
KWWG	≤ 0.2
WQPR	≤ 0.2
VSTY	≤ 0.2
PSTY	≤ 0.2
SYEV	≤ 0.2
AKHW	≤ 0.2
KQPI	≤ 0.2
PNPD	≤ 0.2

Variant	one-hybrid fitness for binding NBS DNA
LSCC	≤ 0.2
MVKV	≤ 0.2
QSFE	≤ 0.2
TGYF	≤ 0.2
RNEK	≤ 0.2
RQNF	≤ 0.2
TGAL	≤ 0.2
TFNM	≤ 0.2
RHLE	≤ 0.2
GRNW	≤ 0.2
SVSN	≤ 0.2
QAAA	≤ 0.2
INAM	≤ 0.2
QNHN	≤ 0.2
FWMS	≤ 0.2
QNDL	≤ 0.2
RARK	≤ 0.2
PEHR	≤ 0.2
PPWY	≤ 0.2
KMDF	≤ 0.2
IRTY	≤ 0.2
RLFQ	≤ 0.2
LVDG	≤ 0.2
DHDN	≤ 0.2

Variant	one-hybrid fitness for binding NBS DNA
NYRH	≤ 0.2
SYNI	≤ 0.2
AFNC	≤ 0.2
LDYR	≤ 0.2
GYYT	≤ 0.2
SRNF	≤ 0.2
FANW	≤ 0.2
YNRR	≤ 0.2
HCLN	≤ 0.2
QALA	≤ 0.2
EESN	≤ 0.2
HEPT	≤ 0.2
AACT	≤ 0.2
PTMV	≤ 0.2
ATSW	≤ 0.2
DHNC	≤ 0.2
AYGC	≤ 0.2
TRVV	≤ 0.2
YTKK	≤ 0.2
LIWD	≤ 0.2
LTQD	≤ 0.2
DVYL	≤ 0.2
ERTA	≤ 0.2
NSCG	≤ 0.2

Variant	one-hybrid fitness for binding NBS DNA
VYTC	≤ 0.2
TRRW	≤ 0.2
RLVW	≤ 0.2
HRNS	≤ 0.2
VAWE	≤ 0.2
LTAM	≤ 0.2
MIYG	≤ 0.2
VIAM	≤ 0.2
VLNM	≤ 0.2
QKAF	≤ 0.2
HEQS	≤ 0.2
PPHE	≤ 0.2
NAAG	≤ 0.2
LFVP	≤ 0.2
EVRP	≤ 0.2
PLTT	≤ 0.2
FGRM	≤ 0.2
TYPG	≤ 0.2
LAFH	≤ 0.2
HLHI	≤ 0.2
KRLF	≤ 0.2
RATK	≤ 0.2
NSPG	≤ 0.2
NLVK	≤ 0.2

Variant	one-hybrid fitness for binding NBS DNA
SDGR	≤ 0.2
GDGY	≤ 0.2
NTEK	≤ 0.2
AGPG	≤ 0.2
VAGF	≤ 0.2
DREY	≤ 0.2
HLHR	≤ 0.2
AQDT	≤ 0.2
GDRC	≤ 0.2
MATV	≤ 0.2
MYRT	≤ 0.2
VTRR	0.313
ADAR	≤ 0.2
PGYA	≤ 0.2
FCSY	≤ 0.2
GRTL	≤ 0.2
HQMT	≤ 0.2
IRPT	≤ 0.2
ITAK	≤ 0.2
WSQK	≤ 0.2
WWGG	≤ 0.2
LSHF	≤ 0.2
YGLN	≤ 0.2
QQPT	0.379

Variant	one-hybrid fitness for binding NBS DNA
TSHC	≤ 0.2
RLSQ	≤ 0.2
ACLR	≤ 0.2
LIQN	≤ 0.2
MDRY	≤ 0.2
ICLK	≤ 0.2
RKAI	≤ 0.2
GKGF	≤ 0.2
PCAM	≤ 0.2
DVNL	≤ 0.2
GAKG	≤ 0.2
PHQQ	≤ 0.2
QKIE	≤ 0.2
CQYR	≤ 0.2
GNKL	≤ 0.2
RNVS	≤ 0.2
IELR	≤ 0.2
QTFL	≤ 0.2
